# Measured values reported in PubChem BioAssay AID686978 (National Center for Advancing Translational Sciences (NCATS), 2013).
# The campaign covered roughly 420,000 compounds. About 64,000 (15%) were called active. The inconclusive results got no clear call from the source; some entries with a clear call stand among them for comparison. Calls come from the whole dose curve; as a rule, active = well fitted inhibition curve with a large enough effect; inconclusive = small, poorly fitted or top-dose-only effect; inactive = flat fitted curve, though single readings scatter. Potencies of inconclusive entries are left out as doubtful fits.
# Assay: qHTS for Inhibitors of human tyrosyl-DNA phosphodiesterase 1 (TDP1): qHTS in cells in absence of CPT; note: nearly all actives have a fitted effect of over 55% in size
# Details: DT40 Tdp1-/- hTDP1 cells, no CPT, ATP luminescence, 48 h; activity change, negative = growth inhibition: at 46.2 µM (top of the series) unless noted
# Summary of the method: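 Camptothecin absent (DMSO only). Human TDP1-complemented DT40 knockout cells, 400 cells/well, 37 °C for minimum 48 hr; ATP measured via CellTiter-Glo, 30 min dark incubation, luminescence.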
# % is set by controls: 0 for no effect and ±100 for the full control effect; potency is the fitted concentration of half-maximal effect; tags give direction and shape of the fitted curve.
SMILES,Potency,"activity change, negative = growth inhibition"
Cc1cc(NC(=O)Cc2c(F)cccc2Cl)no1,"inconclusive [inhibitor, single point]",–
Cc1ccc(CNC(=O)C2CCCN(c3nc4ccccc4n4cccc34)C2)cc1 (stereo not given),"inconclusive [inhibitor, partial curve, poor fit]",–
Cc1cc(=O)c2c(N(C)C)cccc2[nH]1,"inconclusive [inhibitor, single point]",–
CCCCC(=O)Nc1cccc(NC(=O)c2ccccc2Br)c1,inactive,–
COc1ccc(NC(=O)CC(C)C)c(OC)c1,inactive,–
CCN(CC)c1ccc2c(C)c(CN3CCOCC3)c(=O)oc2c1,"inconclusive [inhibitor, partial curve]",–
CCN1CCCC1CNC(=O)c1cc2c(-c3ccc(Cl)cc3)nn(C)c2s1 (stereo not given),active: 18.4 µM,–
Cc1nc(SCC(=O)N2CCOCC2)c2c3c(sc2n1)CCC3,"inconclusive [inhibitor, single point]",–
COc1ccc(CCN2C(=O)CSC2c2cccc([N+](=O)[O-])c2)cc1OC (stereo not given),"inconclusive [inhibitor, single point]",–
COc1ccccc1NS(=O)(=O)c1ccc(C)c(NC(=O)C2CCCO2)c1 (stereo not given),"inconclusive [inhibitor, single point]",–
COC(=O)[C@@]12C[C@@H](CC(=O)NCc3cccc(C(F)(F)F)c3)C(=O)N(Cc3ccccc3)C1=CCC(C)(C)C2,"inconclusive [inhibitor, single point]",–
COc1cc(OC)nc(NC(=S)NC(=O)c2ccccc2)n1,"inconclusive [inhibitor, single point]",–
CN1CCN(C(=S)c2cn(Cc3ccccc3)c3ccccc23)CC1,inactive,–
Cc1nc(NC(=O)C2CCCCC2)sc1C,"inconclusive [inhibitor, single point]",–
O=C(c1cccs1)N1CCCc2cc(NS(=O)(=O)c3ccc(Br)cc3)ccc21,"inconclusive [inhibitor, single point]",–
CCCCNC(=O)C[C@@H]1C[C@@]2(C(=O)OCC)CCC=C2N(CCC2=CCCCC2)C1=O,"inconclusive [inhibitor, single point]",–
CCc1cccc(C)c1NC(=O)C1=C(C(=O)O)CCCC1,inactive,–
CC(C)(C)c1cc(NC(=O)CCSc2nnc3ccccn23)cc(C(C)(C)C)c1,inactive,–
O=C(CN1c2cccc3cccc(c23)S1(=O)=O)Nc1cccc(S(=O)(=O)N2CCOCC2)c1,"inconclusive [inhibitor, single point]",–
Brc1cccc(-c2nn(-c3ccccc3)c3c2cnc2cc4c(cc23)OCO4)c1,inactive,–
CSc1ccc(/C=C/C(=O)NC23CC4CC(CC(C4)C2)C3)cc1,"inconclusive [inhibitor, single point]",–
COc1ccc(-n2c(CC3C(=O)Nc4ccc(C)cc43)nc3ccccc3c2=O)cc1 (stereo not given),"inconclusive [inhibitor, single point]",–
Cc1ccsc1C(=O)OCC(=O)NC1CCCCC1,inactive,–
O=C1Nc2cc(C(=O)N3CCc4ccccc4C3)ccc2S/C1=C\c1ccccc1,inactive,–
O=C(C(Cl)c1ccccc1)N1CCCC1 (stereo not given),"inconclusive [inhibitor, single point]",–

SMILES,Potency,"activity change, negative = growth inhibition"
Cc1[nH]n(C(N)=S)c(=O)c1N=Nc1cccc([N+](=O)[O-])c1C,"inconclusive [inhibitor, single point]",–
COc1cccc(-n2ccnc2SCC(=O)Nc2cccc3ccccc23)c1,"inconclusive [inhibitor, single point]",–
COC(=O)COn1c(-n2nc(C)cc2C)nc2ccccc2c1=O,"inconclusive [inhibitor, single point]",–
COc1cc(CNCCO)ccc1OCCc1ccccc1,active: 25.9 µM,–
O=C(NCc1ccccc1C(F)(F)F)C1CC(c2ccccc2C(F)(F)F)=NO1 (stereo not given),"inconclusive [inhibitor, single point]",–
Cc1ccc(OCC2Cn3c(nc4c3c(=O)n(C)c(=O)n4C)O2)cc1 (stereo not given),"inconclusive [inhibitor, partial curve, poor fit]",–
O=C(Nc1ccccc1)C1=C(O)CC(c2ccco2)CC1=Nc1ccccc1 (stereo not given),–,inconclusive: -30.9% [inhibitor]
O=C1CC(c2ccccc2)CC(O)=C1C=NCCN1CCN(Cc2ccccc2)CC1 (stereo not given),inactive,–
O=C1CCNc2c(Cl)cccc21,inactive,–
Cc1sc(NCc2ccccc2)nc1-c1ccccc1,"inconclusive [inhibitor, single point]",–
COc1ccccc1-c1cc2nc(NCc3cccc(Cl)c3)ccn2n1,active: 18.4 µM,–
O=C(c1ccccc1)c1nn(-c2ccccc2)c(=O)cc1C(F)(F)F,"inconclusive [inhibitor, single point]",–
C/C(=N\NC(=O)COc1ccc(C(C)(C)C)cc1)c1ccc(N2CCOCC2)cc1,"inconclusive [inhibitor, single point]",–
COc1cc(OC)cc(C(=O)Nc2ccccc2S(=O)(=O)N2CCCC2OC(C)=O)c1 (stereo not given),"inconclusive [inhibitor, single point]",–
COc1cc(S(=O)(=O)Nc2ccccc2C)ccc1Cl,"inconclusive [inhibitor, single point]",–
CCCSC1=NC2(CCN(C(=O)NC3CCCCC3)CC2)N=C1c1ccc(OC)cc1,active: 23.1 µM,–
Cc1ccc(-c2nnc(NC(=O)CCS(=O)(=O)c3ccc(F)cc3)o2)c(C)c1,inactive,–
CCn1cc(C(=O)NCCCOC(C)C)c(=O)c2cc(S(=O)(=O)N3CCC(C)CC3)ccc21,"inconclusive [inhibitor, single point]",–
COc1cccc(CCNc2ncnc3sc(C(=O)N4CCOCC4)c(C)c23)c1,inactive,–
O=C(c1ccc(F)cc1)N(c1ccccn1)C1CCCCC1,"inconclusive [inhibitor, single point]",–
COc1ccc(-c2sc3ccc(N4CCOCC4)cc3c2C#CC2(O)CCCCC2)cc1,"inconclusive [inhibitor, single point]",–
Cc1occc1-c1nc(-c2ccccn2)no1,"inconclusive [inhibitor, partial curve]",–
O=C(O)c1ccccc1C(=O)OCCCc1ccncc1,inactive,–
CC1(C(=O)NS(=O)(=O)c2ccc(Cl)s2)CCN1C(=O)c1ccc(C2CCCCC2)cc1 (stereo not given),inactive,–
CSC(=NC#N)N1CCN(c2cccc(Cl)c2)CC1,"inconclusive [inhibitor, single point]",–

SMILES,Potency,"activity change, negative = growth inhibition"
CN(C)CCNC(=O)c1cccc2ccc(-c3ccc(-c4ccccc4)cc3)nc12,"inconclusive [inhibitor, single point]",–
O=C(NCC(=O)N1CCCCC1)c1sc2ccccc2c1Cl,inactive,–
CC1(C)c2ccccc2C(=O)c2ccccc21,"inconclusive [inhibitor, single point]",–
CC1(C)CC(=O)C(C=NCC2CCN(C(=O)Cc3ccccc3)CC2)=C(O)C1,"inconclusive [inhibitor, single point]",–
c1ccc(COc2ccccc2CNC23CC4CC(CC(C4)C2)C3)cc1,active: 14.6 µM,–
CCC(C)NC(=O)c1ccc(C(=O)c2ccccc2)cc1 (stereo not given),inactive,–
O=C(c1cc(-c2ccco2)on1)N1CCc2ccccc2C1,"inconclusive [inhibitor, single point]",–
Cc1cc(=O)oc2cc(NC(=O)c3ccc(OC(F)F)cc3)ccc12,"inconclusive [inhibitor, partial curve]",–
O=C(Nc1ccc(F)cc1)c1nc(SCc2ccccc2F)ncc1Cl,inactive,–
Cc1cc(=O)oc2c1c(C)nn2-c1cccc(Cl)c1,"inconclusive [inhibitor, partial curve, poor fit]",–
COc1ccccc1CNC(=O)COC(=O)c1cc(-c2ccco2)nc2ccccc12,"inconclusive [inhibitor, single point]",–
O=C(Cn1ncc(Cl)c(Cl)c1=O)NC1CCS(=O)(=O)C1 (stereo not given),active: 20.6 µM,–
COC(=O)c1ccc(CSc2nc3ccccc3c(=O)n2Cc2ccco2)o1,active: 16.4 µM,–
O=C(OCc1ccc([N+](=O)[O-])cc1)c1ccccn1,inactive,–
O=C(O)c1ccc(CS(=O)c2cccc(C(F)(F)F)c2)o1 (stereo not given),inactive,–
COC(=O)CSc1nccc(C)n1,inactive,–
Cc1ccc(CNC(=O)COc2ccc(S(=O)(=O)N3CCOCC3)cc2)cc1,inactive,–
C=CCc1ccc(OCCOc2cccc3cccnc23)c(OC)c1,"inconclusive [inhibitor, single point]",–
Cc1cc(NC(=O)CSCC(=O)Nc2cc(Cl)ccc2N2CCN(C)CC2)no1,inactive,–
CC1(C)C(=O)OC(c2cccn2-c2ccc([N+](=O)[O-])cc2)C(C)(C)C1=O (stereo not given),active: 23.1 µM,–
CCn1cc(CN2CCCC(CNC(=O)COc3ccccc3OC)C2)c(C)n1 (stereo not given),inactive,–
COc1ccc(-c2noc(C3CCCN(C(=O)Nc4ccccc4)C3)n2)cc1 (stereo not given),"inconclusive [inhibitor, single point]",–
O=C1c2ccccc2C(c2nnnn2Cc2ccccc2)N1Cc1cccnc1 (stereo not given),inactive,–
O=C(CN1CCN(c2cccc(C(F)(F)F)c2)CC1)N(C1CCCC1)C1CCS(=O)(=O)C1 (stereo not given),"inconclusive [inhibitor, single point]",–
COc1cccc(NC(=O)C2C(c3ccccc3)C2(Cl)Cl)c1 (stereo not given),"inconclusive [inhibitor, partial curve, poor fit]",–
